Among all 340,000 compounds or so, about 170 (0.05%) were called active. Not shown: some 26% with an inconclusive outcome. The call rests on the fitted dose curve; in most records, active means well fitted inhibition curve with a large enough effect in the signal ratio, with a control signal flat (not every such curve was filed as active); inconclusive means small, poorly fitted or top-dose-only effect, or effect the other way, or a change in a side signal; inactive means flat fitted curve, though single readings scatter; the % refers to the signal ratio. The entries are a selection whose mix differs from that of the whole data set.
Potency means the concentration at half of the fitted maximal effect.

This assay is described as follows: qHTS Assay to Find Inhibitors of Chronic Active B-Cell Receptor Signaling.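 On activity change, negative = inhibition: plate controls were basal doxycycline-induced cells for no effect and cells given 10 µM MG132 for full effect.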 The following applies: ABC-DLBCL IkBa-CBG/CBR reporter, luminescence ratio (green luciferase fused to IkBa over red control in TMD8 lymphoma cells), 4 h; series mostly up to 46.1 µM; activity change, negative = inhibition: at the top concentration. In a few lines: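 TMD8 ABC-DLBCL cells carrying doxycycline-inducible green luciferase fused to IkappaBalpha plus unfused red luciferase were exposed to compounds (up to 46 uM) for 4 hrs at 37C. Activity came from the overlap-corrected green/red luminescence ratio.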
In general terms: In qHTS, concentration-response curves come from the screen itself.
For the molecule `C=CC[C@@H](CC(=O)NCCO)C(=O)N[C@@H](C)COC(=O)[C@H](CC=C)CC(=O)OC(C)(C)C`, the “activity change, negative = inhibition” value is inactive: -2.61%.
For `Cc1ccc2[nH]c(-c3ccccc3)cc(=O)c2c1`, the Potency is active: 5.62 µM.
In the case of `CCO[C@H]1OC(C(=O)Nc2ccccc2)=C[C@@H](c2coc3ccccc3c2=O)[C@@H]1CCCO`, the “activity change, negative = inhibition” value was inactive: 3.37%.
Still for that read-out and setting: next, `O=C(NC(Cc1c[nH]c2ccccc12)C(=O)O)/C(=C/c1ccc2c(c1)OCO2)NC(=O)c1ccccc1` (stereo not drawn): inactive: 5.63%.
With `COc1cc(/C=N/NC(=O)c2[nH]nc3c2CCc2ccccc2-3)ccc1O`, the Potency is active: 20.6 µM.
In the case of `Cc1ccc(S(=O)(=O)N2CCC[C@H]2C(=O)NCc2ccccc2Cl)cc1`, the “activity change, negative = inhibition” value is inactive: -2.57%.
For `C=CCC[C@@H](Cc1ccc(F)cc1)C(=O)OC[C@@H](Cc1c[nH]c2ccccc12)NC(=O)[C@H](CC=C)CC(=O)N[C@H](CO)Cc1ccccc1`, the “activity change, negative = inhibition” value was inactive: -0.0671%.
Consider `N#C/C(=C(/O)CCl)c1nnc2n1CCCCC2`, for which the “activity change, negative = inhibition” value is inactive: 0.971%.
On to `COC(=O)c1ccccc1NC(=O)Cn1nnc(-c2ccc(OC)cc2)n1`, for which the “activity change, negative = inhibition” value is inactive: -2.1%.
Same read-out and setting: next, `C[C@H]1CC[C@@]2(O[C@@H](CCO)C[C@@H](O)[C@@H]2O)O1`: inactive: -3.35%.
The same measure, in the same setting: the same measure for `C[C@@H](C(=O)O)[C@@H]1C[C@@]1(C)[C@@H](NC(=O)OCc1ccccc1)c1ccccc1`: inactive: 3.09%; for `CC(=O)O[C@]1(C(C)=O)CC[C@H]2[C@@H]3C=C(C)C4=CC(=O)CC[C@]4(C)[C@H]3CC[C@@]21C`: inactive: 2.51%.
Still for that read-out and setting: next, `CC(=O)NNc1ncnc2c1cnn2-c1ccccc1`: inactive: 14.2%; `OCC[C@H]1C[C@H](O)[C@@H](O)[C@@]2(OCc3ccccc32)O1`: inactive: 7.55%; `CC1CCCC(C)N1NC(=O)c1ccc(Cl)c(S(N)(=O)=O)c1` (stereo not drawn): inactive: -1.98%.
Turning to `Cc1noc(NS(=O)(=O)c2ccc(N/C=C\C(=O)c3ccccc3)cc2)c1C`, the “activity change, negative = inhibition” value was inactive: 2.74%.
As for `COC(=O)C1=C(C)N(Cc2ccccc2)C(=NCc2cccc(Cl)c2)N[C@H]1c1cccc(F)c1`, the “activity change, negative = inhibition” value is inactive: -0.427%.
Still for that read-out and setting: next, `CCOC(=O)N1CCN(C(=O)/C(=C\c2cccs2)NC(=O)c2cccs2)CC1`: inactive: -1.3%.
The same measure, in the same setting: next, `O=C1OC[C@@H]2CCCN2C(=O)[C@@H](CC(=O)N(CCO)Cc2ccccc2)C/C=C\C[C@@H]1Cc1ccc(F)cc1`: inactive: -0.763%; `CCCCN(C)CCNC(=O)CN1C(=O)CSc2ccc(S(=O)(=O)N3CCCCC3)cc21`: inactive: 6.15%.
In the case of `CC(C)(C)NCC(O)COc1cccc2c1CC(O)C(O)C2` (stereo not drawn), the “activity change, negative = inhibition” value was inactive: 0.85%.
On the same count and under the same terms, next, `CN(C)CCOC(=O)C1(c2ccccc2)CCOCC1`: inactive: -1.43%; `OCC[C@H]1C[C@@H](O)[C@H](O)[C@]2(CCc3ccccc3CO2)O1`: inactive: -0.841%; `COC(=O)[C@@H]1C[C@@]2(O)[C@@H](O)[C@@H](O)[C@@H](O)C[C@H]2N1CC(c1ccccc1)c1ccccc1`: inactive: 1.77%.
The same measure, in the same setting: the same measure for `NC(=O)N1c2ccccc2CC(=O)c2ccccc21`: inactive: 0.449%; for `CCOC(=O)[C@@H]1[C@H]2COc3cc(OC)ccc3[C@@H]2N2C(=O)N(c3ccc(Br)cc3)C(=O)[C@@]12C`: inactive: 24.8%.
Turning to `C=CCn1c(SCCCC)nc(O)cc1=O`, the “activity change, negative = inhibition” value is inactive: 3.74%.
For the molecule `O=C(Nc1cccnc1)c1coc(=O)c2ccccc12`, the Potency was active: 18.4 µM.
For the molecule `COc1ccc(C(=O)N/C(=C\c2cccs2)c2nc3ccccc3[nH]2)cc1OC`, the “activity change, negative = inhibition” value was inactive: -0.173%.
With `CC(C)(C)OC(=O)C[C@H]1C/C=C\C[C@H](CC(=O)N(CCO)Cc2ccccc2)C(=O)N2CCC[C@H]2COC1=O`, the “activity change, negative = inhibition” value is inactive: 3.63%.
On the same count and under the same terms, next, `O=C(C[C@H]1C/C=C\C[C@@H](NC(=O)OCC2c3ccccc3-c3ccccc32)C(=O)O[C@@H](c2ccccc2)CNC1=O)N[C@H](CO)Cc1ccccc1`: inactive: -0.319%; `C=CC[C@H](CC(=O)N[C@H](CO)Cc1ccccc1)C(=O)N[C@H](COC(=O)[C@H](CC=C)CC(=O)OC(C)(C)C)Cc1c[nH]c2ccccc12`: inactive: 8.38%; `O=C(C[C@H]1C/C=C\CC[C@@H](Cc2ccc(F)cc2)C(=O)OC[C@H]2CCCN2C1=O)N[C@H](CO)Cc1ccccc1`: inactive: -4.17%.
As to `COC(C[C@H](O)C[C@H](O)[C@H](C)OCc1ccccc1)OC`, the “activity change, negative = inhibition” value was inactive: 4.48%.
Consider `COC(=O)[C@@H](N)Cc1ccc(O)c(O)c1`, for which the “activity change, negative = inhibition” value was inactive: 0.557%.
For the molecule `Cc1cccc(-n2c3nc(=O)[nH]c(=O)c-3cc3cc([N+](=O)[O-])ccc32)c1`, the Potency was active: 11.6 µM.
`Cc1ccc(C(=O)N/C(=C\C=C\c2ccccc2)C(=O)NCc2ccco2)cc1`: the “activity change, negative = inhibition” value was inactive: -13.4%.
With `CCN1C(=NCCCCO)N[C@@H](c2cccc(F)c2)C(C(=O)OC)=C1C`, the “activity change, negative = inhibition” value was inactive: -6.62%.
Consider `COc1ccccc1N1CCN(/N=C/C=C\c2ccccc2[N+](=O)[O-])CC1`, for which the “activity change, negative = inhibition” value is inactive: 2.13%.
On the same count and under the same terms, next, `COc1ccc(Cl)cc1NC(=O)/C=C/C(=O)O`: inactive: 1.84%; `CC(C)C(NC(=O)c1ccccc1)C(=O)NCCc1ccccc1` (stereo not drawn): inactive: 0.0411%.
The same measure, in the same setting: next, `NC(=O)C1CCN(c2nc(-c3ccccc3N)cs2)CC1`: inactive: -2.5%; `C#CCNC(=O)C1=C[C@@H](c2ccccc2)[C@H](CCCO)[C@@H](OCC)O1`: inactive: 0.443%.

The values above are taken from PubChem BioAssay AID493014 (National Center for Advancing Translational Sciences (NCATS), 2011).
